Test results as given in PubChem BioAssay AID485344 (National Center for Advancing Translational Sciences (NCATS), 2010).
Among all 340,000 compounds or so, about 6,900 (2%) were called active. Rule as the data show it: active = inhibition above about 30%; inactive = below that, where a call was filed. The list shows a part of the results, in another mix than the full data. The source gives no active or inactive call for entries shown without one.

target: D(2) dopamine receptor (Homo sapiens) (UniProt P14416); assay: HTS Assay for Allosteric Antagonists of the Human D2 Dopamine Receptor: Primary Screen for Antagonists; details: HEK293 TREx D2 cells, calcium flux, dopamine EC80; at 10 µM; stronger effect = higher value; also: 0% is about no effect
Sequence of UniProt P14416 (P14416 whole entry, looked up): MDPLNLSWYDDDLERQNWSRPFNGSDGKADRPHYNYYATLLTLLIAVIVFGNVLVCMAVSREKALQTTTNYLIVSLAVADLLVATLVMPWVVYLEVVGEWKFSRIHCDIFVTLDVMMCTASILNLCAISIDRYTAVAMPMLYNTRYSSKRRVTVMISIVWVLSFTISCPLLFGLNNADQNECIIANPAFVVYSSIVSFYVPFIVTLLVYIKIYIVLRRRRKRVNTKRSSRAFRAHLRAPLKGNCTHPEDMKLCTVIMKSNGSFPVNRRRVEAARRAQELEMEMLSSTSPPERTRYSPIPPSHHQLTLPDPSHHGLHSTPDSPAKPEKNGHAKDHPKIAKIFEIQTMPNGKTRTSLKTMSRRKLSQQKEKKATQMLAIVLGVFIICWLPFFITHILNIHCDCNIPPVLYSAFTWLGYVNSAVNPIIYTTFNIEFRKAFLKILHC
Outline: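 Dopamine at EC80 is the agonist stimulus; test compounds precede it by 180 s. Calcium flux read kinetically in a force-coupled, inducible HEK293 T-REx D2 cell line.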

| Compound | inhibition |
| --- | --- |
| Cc1ccc(-c2nnc(Nc3cccc(Cl)c3)c3ccccc23)cc1S(=O)(=O)N1CCOCC1 | 11.1% |
| COc1ccc(C)cc1NC(=O)N(Cc1ccc(C)o1)C1CCN(C(C)=O)CC1 | -1.34% |
| COc1ccc(CN2C(=O)c3oc4ccccc4c(=O)c3C2c2ccc(O)cc2)cc1 (configuration not stated) | -3.19% |
| O=C(Nc1cccc(-c2nc3cc(Cl)ccc3o2)c1)c1cc([N+](=O)[O-])ccc1N1CCOCC1 | 9.53% |
| CCn1c(=O)c2cc(C(=O)Nc3cc(F)ccc3F)sc2c2ccccc21 | -0.791% |
| Cc1ccc(CN2CCC(CNc3ncnc4onc(-c5ccc(F)cc5)c34)CC2)cc1 | 23.2% |
| COc1nc(OC)nc(N2CCCCCC2)n1 | active: 33% |
| COc1ccc(S(=O)(=O)c2nnn(-c3cc(Cl)c(OC)cc3OC)c2C)cc1 | 11.6% |
| O=C(CSc1nc2c([nH]c3ccccc32)c(=O)n1-c1ccc(F)cc1)NCc1ccccc1 | -0.047% |
| CCOCCCn1c(SCC(=O)Nc2ccc(C(C)C)cc2)nc2c(sc3ccccc32)c1=O | -27.3% |
| Cn1c(=O)c2c(-c3ccccc3)n3c4ccccc4nc(-c4ccccc4)c3c2n(C)c1=O | 6.71% |
| COc1ccc(C(=O)NCC(c2cccnc2)N2CCc3ccccc3C2)cc1OC (configuration not stated) | -6.64% |
| COC(=O)c1cc2occc2n1Cc1nc(-c2ccccc2F)oc1C | 6.63% |
| CCOc1cccc(C(=O)Nc2ccc(S(=O)(=O)N(Cc3ccccc3)c3ccccc3)cc2)c1 | -12.1% |
| COc1cccc(-c2nc(SCc3cc(=O)c4ccc(C)c(C)c4[nH]3)n[nH]2)c1 | 4.24% |
| CCOc1ccc(NC(=O)Cn2cc(C(=O)c3ccc(CC)cc3)c(=O)c3cc(C)ccc32)cc1 | -6.09% |
| COc1ccc(NC(=O)c2csc3c2CCCCC3)cc1 | -10.3% |
| Cc1ccc(Cc2nc3ccccc3nc2SCC(=O)NCCC(C)C)cc1 | -9.05% |
| Cc1ccc(Cc2c(C)nc3nc(SCC(=O)NC(C)c4ccccc4)nn3c2C)cc1 (configuration not stated) | -2.96% |
| CN1CCN(CCCNC(=O)c2cnn(-c3ccccc3)c2-n2cccc2)CC1 | -14.2% |
| O=c1c2sc3ccccc3c2n(Cc2cccc(C(F)(F)F)c2)c(=O)n1Cc1ccco1 | -1.52% |

| Compound | inhibition |
| --- | --- |
| Cc1ccc(C)c(-c2nc(Cn3c(=O)cc(-c4ccccc4)c4c(C)nn(C)c43)c(C)o2)c1 | 0.379% |
| CC(C)(C)C(=O)CSc1nc2ccsc2c(=O)n1Cc1ccccc1F | 14.8% |
| CCOc1ccccc1CNC(=O)c1ccc2nc(Cc3ccc(OC)cc3)oc2c1 | 15.1% |
| O=C(Nc1cc(NC(=O)c2ccccc2Cl)ccc1Cl)c1ccccc1 | 11.1% |
| O=C(NCc1cccc(F)c1)C1CCN(C(=O)c2sccc2-n2cccc2)CC1 | -9.4% |
| COc1ccc(CNC(=O)c2ccc(Cn3c(=O)c4cccn4c4cccnc43)cc2)cc1OC | 11.9% |
| COc1ccc(N2CCN(C(=O)CCNS(=O)(=O)c3ccc4c(c3)CCN4C(=O)C3CC3)CC2)cc1 | -6% |
| CCc1ccc(NC(=O)CSc2cn(CC(=O)N3CCCC3)c3ccccc23)cc1 | 24.4% |
| CCOCCCNC(=O)NC(CCC(C)C)c1c(-n2cccc2)sc2c1CCN(C)C2 (configuration not stated) | 6.64% |
| COc1ccccc1N1CCN(C(=O)CCS(=O)(=O)c2cc(Br)cc3c2N(C(=O)C2CC2)CC3)CC1 | 4.46% |
| CCOC(=O)c1c(C)oc2nc(C)nc(N3CCN(c4ccccc4)CC3)c12 | -4.37% |
| O=C(Nc1ccc(F)cc1)c1cccn1-c1nnc(N2CCCCC2)s1 | 1.93% |
| COc1ccc2oc(=O)c(C(=O)NCCc3c(C)[nH]c4ccc(Br)cc34)cc2c1 | 9.88% |
| O=C(CSc1nnc(CNC(=O)c2ccccc2)n1-c1cccc(Cl)c1)Nc1ccccc1F | -3.02% |
| Fc1ccccc1N1CCN(CCCNc2ccc3nncn3n2)CC1 | active: 90% |
| Cc1ccc(-c2csc(/C(C#N)=C/c3ccccc3Cl)n2)cc1 | 8.83% |
| Cc1cn2c(=O)cc(COc3ccccc3NC(=O)c3ccccc3C)nc2s1 | 1.86% |
| CCCNC(=O)c1cnc2sc(N3CCCCC3)nn2c1=O | 5.98% |
| Cc1ccc2cccc(NC(=O)c3ccc(-c4ccc(Br)cc4)o3)c2n1 | -4.96% |
| COc1cccc(N2C(=O)N(CC(=O)NCc3cccc(OC)c3OC)c3ccccc3S2(=O)=O)c1 | 9.1% |
| CCc1ccc(-n2c(-c3ccccc3)c(C)n3c4c(=O)n(C)c(=O)n(C)c4nc23)cc1 | 9.83% |

| Compound | inhibition |
| --- | --- |
| NS(=O)(=O)c1ccc(CCNC(=O)c2nc(SCc3ccccc3F)ncc2Cl)cc1 | -11.3% |
| COc1cccc(C2C(C(=O)Nc3ccccc3OC)=C(C)Nc3nc4ccccc4n32)c1 (configuration not stated) | 2.16% |
| CCc1ccccc1Nc1ncnc2c1nc1n2CCCC1 | -18.8% |
| Cc1cc(C)c2c(-n3cccc3)c(C(=O)NCCCN3CCCCC3C)sc2n1 (configuration not stated) | 12.1% |
| COc1cc(-c2noc(-c3cc(C(C)C)[nH]n3)n2)cc(OC)c1OC | 5.31% |
| O=C1OC(N2CCN(c3ccccn3)CC2)c2ccccc21 (configuration not stated) | active: 33.8% |
| Cc1nn(S(=O)(=O)c2ccc(Cl)cc2)c(C)c1S(=O)(=O)N1CCCCCC1 | -15.9% |
| CCOC(=O)c1c(NC(=O)c2cc(=O)c3c(C)cc(C)cc3o2)sc(C(C)=O)c1C | 2.57% |
| CC(=O)Nc1nonc1-c1nnc(SCc2ccc(Cl)cc2)n1C | 1.27% |
| COc1ccc(CNc2nc(=S)[nH]c3cc(OC)c(OC)cc23)cc1 | active: 34% |
| COC(=O)c1ccccc1OCCN1CCCCCC1 | active: 38.9% |
| CNC(=O)COc1ccc(NC(=O)c2ccc(-c3nn(C)c(=O)c4ccccc34)cc2)cc1 | 0.166% |
| CCn1c(SCc2ccccc2Cl)nc(=O)c2c(C(=O)OC)cc(C3CC3)nc21 | -0.986% |
| CC(C)NC(=O)C1CCN(C(=O)N2CCOc3ccc(Cl)cc32)CC1 | 16% |
| Clc1ccc(CCNC(c2nnc(-c3ccccc3)o2)c2ccccc2Cl)cc1 (configuration not stated) | 8.84% |
| Cc1ccc(-c2noc(-c3ccc(N4CCCCC4)c([N+](=O)[O-])c3)n2)cc1 | -3.61% |
| CCCOc1ccc(C(=O)Nc2cc(-c3nc4cc(C)cc(C)c4o3)ccc2C)cc1 | 2.87% |
| CN1C(=O)c2ccccc2Sc2ccc(NC(=O)N3CCN(c4ccccc4F)CC3)cc21 | -17.7% |
| CCOc1cccc(C(=O)Nc2ccc3oc(-c4cccnc4)nc3c2)c1 | 11.9% |
| CC(=C/c1ccc(C(C)C)cc1)/C=N/NC(=O)c1ccncc1 | active: 36.1% |
